The other results are listed elsewhere or left out.
test system: PfSIP2 AP2 domain 1 (GST-tagged); test: gcPBM binding intensity (ln(normalized median fluorescence intensity)); higher = stronger DNA binding
Summary of the method: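 GST-fused DNA-binding domains of P. falciparum, expressed in E. coli, were applied at about 25 μg on average for 1 h to an Agilent 4 × 180k array of primer-extended double-stranded 36-bp intergenic genomic probes and negative controls. Binding intensity is the highest Masliner-normalised natural-log median intensity across replicate spots of either probe orientation, measured with Alexa488 anti-GST antibody and a 488 nm scan.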

Sequence	gcPBM binding intensity (ln)
ACGGGTCAATATATGCGTACTTATTTAAATAATTAA [XGTACX_site1518]	7.01
AATAATATAGATTGTACACACAAAATGGGAAAAAAA [CACACA_site1886]	7.07
ATAAATGGAAACAAAAGTACTAAAAAAAAAAAATAA [XGTACX_site1510]	6.85
TATATATGTATGTATTGTACAATTAAAAATATGTAT [XGTACX_site3990]	7.1
AAAAAAAAAAAAGATACACACAAAAATGAATATATA [CACACA_site2099]	6.9
ATATATATATATATATGTACATATATATATAATTTT [XGTACX_site4146]	9.58
ATATATATATATAACTGTACTTATATATACATTTTA [XGTACX_site8605]	9.02
ATCAAGCACCAACACACACACACACCCCCACCCACA [CACACA_site370]	8.18
TAAATAAATAAAAAAACACACATATATATATATATA [CACACA_site4029]	9.74
TTTTATCACATTATTGCACACACATAAAGAAAAAAA [CACACA_site8922]	7.65
TTATTTATTTATAATAGTACAATTTAATGATCTTCT [XGTACX_site4831]	6.68
TGTTTTATACTAAATGAACACACACCCATATATATA [CACACA_site7912]	7.64
CAATATATTTGATTTACACACTTACAATGTATATAA [CACACA_site2994]	7.04
AATAATATATATATATATATAATAAAATATAAATAG [CACACA_negctrl_site1515]	7.31
CCAACATGCCCACGCACACACAAAAAAAGCATGCAT [CACACA_site4217]	7.23
ATATGAAATAATAATAGTACATAAAATAATTTTACT [XGTACX_site6964]	6.83
ATAGAAATATATATATGTACATATAGATAAATCTAT [XGTACX_site7833]	6.93
ATAAATACAGATAACACACACATATATATATATATA [CACACA_site5431]	9.28
AAAAATAACGTAAATTGTACATGTAAAATTTTCTAT [XGTACX_site7158]	6.96
TTTTAAGAATAAAATTGTACACATACATGTGTTCGC [XGTACX_site438]	6.72
TTATTTATATATTCATGTACATAACATTTCATTCGA [XGTACX_site4388]	6.93
ATATAAATTTTTTAGAGTACTAAAATAAAATAATAT [XGTACX_site2118]	7.03
AAACAGAAGACATATACACACATACAAAAAAGTGCA [CACACA_site4699]	7.62
TTCTCATTCAAATTAGTGCATTTTTGTTATTACATT	9.69
TGTGTATATATATAATGTACATAAAGATTTATATAT [XGTACX_site5835]	7.14

— the supplement of paper PMC11417369
